Results reported in the supplement of paper PMC8728848.
This is one part of the list.

Legend:
Experiment in all cases: glycan array binding signal (z-score within array); higher = stronger binding
Settings in all cases: glycan notation: IUPAC condensed, linker removed
[1] = biological target: Gal(b1-4)GlcNAc(a1-6)Gal(b1-4)GlcNAc
In short: (§1)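 Arrays were curated from the Consortium for Functional Glycomics database, 3228 in total, and kept only where the protein sequence was available. Binding is expressed as a within-array Z-score. This score was averaged across arrays of the same protein sequence at different concentrations or buffers and across linkers, and negative values can be read as non-binding.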

[2] = biological target: Gal(b1-4)GlcNAc(b1-2)Man(a1-3)Man(b1-4)GlcNAc(b1-4)GlcNAc
In short: as §1

[3] = biological target: Gal(b1-4)GlcNAc(b1-2)Man(a1-3)[Gal(b1-4)GlcNAc(b1-2)Man(a1-6)]Man(b1-4)GlcNAc(b1-4)GlcNAc
In short: as §1

[4] = biological target: Gal(b1-4)GlcNAc(b1-2)Man(a1-3)[Gal(b1-4)GlcNAc(b1-2)Man(a1-6)]Man(b1-4)GlcNAc(b1-4)[Fuc(a1-6)]GlcNAc
In short: as §1

[5] = biological target: Gal(b1-4)GlcNAc(b1-2)Man(a1-3)[GlcNAc(b1-2)Man(a1-6)]Man(b1-4)GlcNAc(b1-4)GlcNAc
In short: as §1

[6] = biological target: Gal(b1-4)GlcNAc(b1-2)Man(a1-3)[Man(a1-6)]Man(b1-4)GlcNAc(b1-4)GlcNAc
In short: as §1

[7] = biological target: Gal(b1-4)GlcNAc(b1-2)Man(a1-6)Man(b1-4)GlcNAc(b1-4)GlcNAc
In short: as §1

[8] = biological target: Gal(b1-4)GlcNAc(b1-2)Man(a1-6)[GlcNAc(b1-2)Man(a1-3)]Man(b1-4)GlcNAc(b1-4)GlcNAc
In short: as §1

[9] = biological target: Gal(b1-4)GlcNAc(b1-2)Man(a1-6)[Man(a1-3)]Man(b1-4)GlcNAc(b1-4)GlcNAc
In short: as §1

[10] = biological target: Gal(b1-4)GlcNAc(b1-2)[Gal(b1-4)GlcNAc(b1-4)]Man(a1-3)[Gal(b1-4)GlcNAc(b1-2)Man(a1-6)]Man(b1-4)GlcNAc(b1-4)GlcNAc
In short: as §1

[11] = biological target: Gal(b1-4)GlcNAc(b1-2)[Gal(b1-4)GlcNAc(b1-4)]Man(a1-3)[Gal(b1-4)GlcNAc(b1-2)[Gal(b1-4)GlcNAc(b1-6)]Man(a1-6)]Man(b1-4)GlcNAc(b1-4)GlcNAc
In short: as §1

[12] = biological target: Gal(b1-4)GlcNAc(b1-3)Gal(b1-3)GlcNAc
In short: as §1

[13] = biological target: Gal(b1-4)GlcNAc(b1-3)Gal(b1-4)Glc
In short: as §1

[14] = biological target: Gal(b1-4)GlcNAc(b1-3)Gal(b1-4)GlcNAc
In short: as §1

[15] = biological target: Gal(b1-4)GlcNAc(b1-3)Gal(b1-4)GlcNAc(b1-3)Gal(b1-4)GlcNAc
In short: as §1

[16] = biological target: Gal(b1-4)GlcNAc(b1-3)Gal(b1-4)[Fuc(a1-3)]GlcNAc(b1-3)Gal(b1-4)[Fuc(a1-3)]GlcNAc
In short: as §1

[17] = biological target: Gal(b1-4)GlcNAc(b1-3)GalNAc
In short: as §1

[18] = biological target: Gal(b1-4)GlcNAc(b1-3)[Gal(b1-4)GlcNAc(b1-6)]Gal(b1-4)GlcNAc
In short: as §1

[19] = biological target: Gal(b1-4)GlcNAc(b1-3)[Gal(b1-4)GlcNAc(b1-6)]GalNAc
In short: as §1

[20] = biological target: Gal(b1-4)GlcNAc(b1-3)[GlcNAc(b1-6)]Gal(b1-4)GlcNAc
In short: as §1

[21] = biological target: Gal(b1-4)GlcNAc(b1-6)Gal(b1-4)GlcNAc
In short: as §1

[22] = biological target: Gal(b1-4)GlcNAc(b1-6)GalNAc
In short: as §1

[23] = biological target: Gal(b1-4)GlcNAc(b1-6)[Gal(b1-3)]GalNAc
In short: as §1

Gal3S(b1-3)GalNAc = biological target: Gal3S(b1-3)GalNAc
In short: as §1

Gal3S(b1-3)GlcNAc = biological target: Gal3S(b1-3)GlcNAc
In short: as §1

[24] = biological target: Gal3S(b1-3)[Fuc(a1-4)]GlcNAc
In short: as §1

Gal3S(b1-4)Glc = biological target: Gal3S(b1-4)Glc
In short: as §1

Gal3S(b1-4)Glc6S = biological target: Gal3S(b1-4)Glc6S
In short: as §1

Gal3S(b1-4)GlcNAc = biological target: Gal3S(b1-4)GlcNAc
In short: as §1

Gal3S(b1-4)GlcNAc6S = biological target: Gal3S(b1-4)GlcNAc6S
In short: as §1

[25] = biological target: Gal3S(b1-4)[Fuc(a1-3)]Glc
In short: as §1

[26] = biological target: Gal3S(b1-4)[Fuc(a1-3)]Glc6S
In short: as §1

Gal3S4S(b1-4)GlcNAc = biological target: Gal3S4S(b1-4)GlcNAc
In short: as §1

Gal3S6S(b1-4)GlcNAc = biological target: Gal3S6S(b1-4)GlcNAc
In short: as §1

Gal3S6S(b1-4)GlcNAc6S = biological target: Gal3S6S(b1-4)GlcNAc6S
In short: as §1

Gal4S(b1-4)GlcNAc = biological target: Gal4S(b1-4)GlcNAc
In short: as §1

Gal4S6S(b1-4)GlcNAc = biological target: Gal4S6S(b1-4)GlcNAc
In short: as §1

Gal6S(b1-4)Glc = biological target: Gal6S(b1-4)Glc
In short: as §1

Gal6S(b1-4)Glc6S = biological target: Gal6S(b1-4)Glc6S
In short: as §1

Gal6S(b1-4)GlcNAc = biological target: Gal6S(b1-4)GlcNAc
In short: as §1

Gal6S(b1-4)GlcNAc6S = biological target: Gal6S(b1-4)GlcNAc6S
In short: as §1

GalNAc(a1-3)Gal = biological target: GalNAc(a1-3)Gal
In short: as §1

GalNAc(a1-3)GalNAc = biological target: GalNAc(a1-3)GalNAc
In short: as §1

[27] = biological target: GalNAc(a1-3)GalNAc(a1-3)Gal(a1-4)Gal(b1-4)GlcNAc
In short: as §1

GalNAc(b1-3)Gal = biological target: GalNAc(b1-3)Gal
In short: as §1

B1: cupB6 (Pseudomonas aeruginosa), Q02SP7 (protein)
chain: MSMRLFPGRVSLRRRPGAQARQALVLGLCCLTGGQAWALNEVALNCSFGNGKGLPWRVVNELTSGTAKGTVLFARPVSLFLSYKPQASQEAHELVLGGNWSGVGYPGPYGTVASDVKGIGYRISVDAQDGVKRVIPVDNQPHALDKRVTSFSGSTTSDYLQELVLTVDPGELPAGDLKVTSVSGSATLNLWAVDRLKGEASIGSVLAVPADNYPTGVCRKPYSLIGPASIAIGGGPPPPPIPKKCKVEVGREINVKLGSVALKNFPRVNDTSTERSFDISLSECAALAKPEIAFRDKYVSAQQADPTILSLKSGGAAGFGIVVKNGLDQQRIRFDGTPYPMRRVGDSADLPLSAAYIRIGAEGELKAGVADGAAEFTFTFP
In the case of B1, the “glycan array binding signal (z-score)” value [1] is reported as 0.171, the “glycan array binding signal (z-score)” value [2] is reported as 0.035 and the “glycan array binding signal (z-score)” value [3] is reported as -0.265. For the same binder, the “glycan array binding signal (z-score)” value [4] was 0.09, the “glycan array binding signal (z-score)” value [5] was 0.09 and the “glycan array binding signal (z-score)” value [6] was 0.195. For the same binder, the “glycan array binding signal (z-score)” value [7] was -0.11, the “glycan array binding signal (z-score)” value [8] was -0.135 and the “glycan array binding signal (z-score)” value [9] was 0.004. The “glycan array binding signal (z-score)” value [10] was -0.006, the “glycan array binding signal (z-score)” value [11] was -0.092 and the “glycan array binding signal (z-score)” value [12] was 0.008. The “glycan array binding signal (z-score)” value [13] was -0.133, the “glycan array binding signal (z-score)” value [14] was -0.185 and the “glycan array binding signal (z-score)” value [15] was -0.146. The “glycan array binding signal (z-score)” value [16] was 0.136, the “glycan array binding signal (z-score)” value [17] was 0.036 and the “glycan array binding signal (z-score)” value [18] was 0.012. The “glycan array binding signal (z-score)” value [19] was -0.207, the “glycan array binding signal (z-score)” value [20] was 0.065 and the “glycan array binding signal (z-score)” value [21] was 0.116. For the same binder, the “glycan array binding signal (z-score)” value [22] was -0.128, the “glycan array binding signal (z-score)” value [23] was -0.03 and the “glycan array binding signal (z-score)” value (Gal3S(b1-3)GalNAc) was -0.096. For the same binder, the “glycan array binding signal (z-score)” value (Gal3S(b1-3)GlcNAc) was -0.182, the “glycan array binding signal (z-score)” value [24] was -0.069 and the “glycan array binding signal (z-score)” value (Gal3S(b1-4)Glc) was -0.206. For the same binder, the “glycan array binding signal (z-score)” value (Gal3S(b1-4)Glc6S) was -0.149, the “glycan array binding signal (z-score)” value (Gal3S(b1-4)GlcNAc) was -0.183 and the “glycan array binding signal (z-score)” value (Gal3S(b1-4)GlcNAc6S) was -0.208. The “glycan array binding signal (z-score)” value [25] was -0.226, the “glycan array binding signal (z-score)” value [26] was 0.209 and the “glycan array binding signal (z-score)” value (Gal3S4S(b1-4)GlcNAc) was -0.09. The “glycan array binding signal (z-score)” value (Gal3S6S(b1-4)GlcNAc) was -0.193, the “glycan array binding signal (z-score)” value (Gal3S6S(b1-4)GlcNAc6S) was -0.237 and the “glycan array binding signal (z-score)” value (Gal4S(b1-4)GlcNAc) was -0.004. For the same binder, the “glycan array binding signal (z-score)” value (Gal4S6S(b1-4)GlcNAc) was -0.327, the “glycan array binding signal (z-score)” value (Gal6S(b1-4)Glc) was -0.029 and the “glycan array binding signal (z-score)” value (Gal6S(b1-4)Glc6S) was -0.098. For the same binder, the “glycan array binding signal (z-score)” value (Gal6S(b1-4)GlcNAc) was -0.168, the “glycan array binding signal (z-score)” value (Gal6S(b1-4)GlcNAc6S) was 0.174 and the “glycan array binding signal (z-score)” value (GalNAc(a1-3)Gal) was -0.173. For the same binder, the “glycan array binding signal (z-score)” value (GalNAc(a1-3)GalNAc) was 0.065, the “glycan array binding signal (z-score)” value [27] was -0.131 and the “glycan array binding signal (z-score)” value (GalNAc(b1-3)Gal) was 0.216.
